Results published in article PMC4336329 (PLoS ONE, 2015).
About 2,200 (0.71%) of roughly 310,000 compounds showed an effect of 50% or more. Effects have a minus sign here. The list shows a part of the results. Where a SMILES comes first, the peptide text is derived from it. The star is where a group is joined. OBn = c1ccc(CO*)cc1

Target: human ether-à-go-go-related gene (hERG) potassium channel (human, UniProt Q12809)
Test: primary screen, population patch clamp on CHO cells stably expressing hERG

Chain of human ether-à-go-go-related gene (hERG) potassium channel (Q12809 whole entry, looked up): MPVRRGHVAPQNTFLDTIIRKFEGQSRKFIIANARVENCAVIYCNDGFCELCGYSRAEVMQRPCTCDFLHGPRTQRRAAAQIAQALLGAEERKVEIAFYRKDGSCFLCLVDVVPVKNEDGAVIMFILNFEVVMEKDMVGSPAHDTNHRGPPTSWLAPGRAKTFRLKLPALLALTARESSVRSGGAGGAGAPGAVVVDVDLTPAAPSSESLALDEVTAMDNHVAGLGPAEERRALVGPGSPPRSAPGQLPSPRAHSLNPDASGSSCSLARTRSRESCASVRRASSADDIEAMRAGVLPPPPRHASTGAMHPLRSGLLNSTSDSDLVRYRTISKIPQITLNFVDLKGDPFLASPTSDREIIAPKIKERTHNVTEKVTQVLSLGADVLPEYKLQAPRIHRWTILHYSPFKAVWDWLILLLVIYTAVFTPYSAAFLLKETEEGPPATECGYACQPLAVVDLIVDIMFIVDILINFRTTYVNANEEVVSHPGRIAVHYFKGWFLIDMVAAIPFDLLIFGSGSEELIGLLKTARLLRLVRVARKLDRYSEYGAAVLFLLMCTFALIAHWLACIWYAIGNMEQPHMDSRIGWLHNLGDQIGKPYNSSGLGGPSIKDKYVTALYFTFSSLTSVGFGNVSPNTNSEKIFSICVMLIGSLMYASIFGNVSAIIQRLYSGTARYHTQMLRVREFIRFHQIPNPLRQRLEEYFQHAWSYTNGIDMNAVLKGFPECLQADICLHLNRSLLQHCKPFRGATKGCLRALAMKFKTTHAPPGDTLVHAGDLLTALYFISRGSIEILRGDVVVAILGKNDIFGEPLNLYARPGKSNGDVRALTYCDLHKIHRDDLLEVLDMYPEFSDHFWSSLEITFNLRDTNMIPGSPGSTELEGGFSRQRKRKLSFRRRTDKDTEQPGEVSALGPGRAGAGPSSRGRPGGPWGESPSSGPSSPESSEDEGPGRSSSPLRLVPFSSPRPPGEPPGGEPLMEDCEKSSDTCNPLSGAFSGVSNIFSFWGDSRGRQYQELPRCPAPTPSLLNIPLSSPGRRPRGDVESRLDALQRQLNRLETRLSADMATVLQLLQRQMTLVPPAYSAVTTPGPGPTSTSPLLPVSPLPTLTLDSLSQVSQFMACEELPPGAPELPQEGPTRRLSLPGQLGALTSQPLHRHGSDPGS

| Compound | hERG current change (%, negative = inhibition) at 1uM [%] |
| --- | --- |
| C#CCOc1c(Br)cc(/C=N\NC(=O)CN2CCOCC2)cc1OCC | 4.89 |
| COc1ccc(N=Nc2c(N)n[nH]c2N)cc1 | 11.4 |
| COC(=O)c1sc(N)nc1C(C)(C)C | 6.99 |
| COc1ccc(CNC(=O)CN(Cc2ccccc2OC)C(=O)c2csnn2)cc1 | 5.06 |
| N#CC1=C(O)CCCn2c1nc1ccccc1c2=O | 11.3 |
| CCN(CC)S(=O)(=O)c1cccc(C(=O)NC(Cc2c[nH]c3ccccc23)c2nnc3n2CCC3)c1 (stereo not shown) | 11.2 |
| COc1ccc(-c2nn(-c3ccccc3)cc2C(=O)N(C)C)cc1 | -2.64 |
| O=C(CNC(=O)c1ccco1)N/N=C/c1ccc(O)c([N+](=O)[O-])c1 | 17.7 |
| CCCCN1C(=O)c2ccc(C(=O)Nc3ccc(S(=O)(=O)N(C)C)cc3)cc2C1=O | 2.47 |
| Cn1nnc(NC(=O)c2cccs2)n1 | 6.92 |
| O=C(COC(=O)c1ccc(O)cc1O)NC12CC3CC(CC(C3)C1)C2 | 5.76 |
| Cc1ccc(CCC(=O)Nc2ccc(S(N)(=O)=O)cc2)o1 | 12.4 |
| COc1cccc(/C=N/NC(=O)CCc2c(C)n[nH]c2C)c1 | 21.3 |
| CCOC(=O)c1nnn(-c2nc(N(C)C)nc(N(C)C)n2)c1C | 11.9 |
| Cn1cnc([N+](=O)[O-])c1SCC(O)CCl (stereo not shown) | 6.77 |
| CCc1nnc(NC(=O)c2ccc(-c3ccc([N+](=O)[O-])cc3Cl)o2)s1 | 14.1 |
| COc1ccc(OC)c(NC(=O)NCCc2c[nH]c3ccccc23)c1 | 13.4 |
| Cc1ccc(CN2CCSc3ccc(C(=O)NCc4cccnc4)cc32)cc1 | 1.31 |
| O=C(Nc1ccccc1N1CCN(C(=O)c2ccc(Cl)cc2)CC1)c1cccc(F)c1 | -81.2 |
| CCCCN(C)C(=O)C1CCN(CCCc2ccccc2)CC1.O=C(O)C(=O)O | -73.6 |
| CC(=O)N=c1sc2cc(C)ccc2n1C | 16.4 |
| Cc1ccc(C2C(C(=O)c3sc(C)nc3C)=C(O)C(=O)N2CCN(C)C)o1 (stereo not shown) | 9.83 |

| Compound | hERG current change (%, negative = inhibition) at 1uM [%] |
| --- | --- |
| COc1ccc(S(=O)(=O)N2CCCOC2CNC(=O)C(=O)NCCCn2ccnc2)cc1OC (stereo not shown) | 11.6 |
| COc1ccc(OC)c(S(=O)(=O)NCCc2csc(-c3cccnc3)n2)c1 | 4.87 |
| Cc1ccc(N(CC(=O)Nc2ccc(-c3nc4ccc(C)cc4s3)cc2)S(C)(=O)=O)cc1 | 9.66 |
| COC(=O)c1cc(C)cc(=O)o1 | 7.43 |
| COc1cc(OC)c(OC)cc1CN1CCCC(C(=O)c2sccc2C)C1 (stereo not shown) | -25.5 |
| O=C(c1cc(-c2cccc(O)c2)on1)N1CCN(C(c2ccccc2)c2ccccc2)CC1 | 7.39 |
| COc1nnc(-c2ccc(N3CCOCC3)c(NC(C)=O)c2)c2ccccc12 | 5.8 |
| Cc1cc(CN(C)C(=O)CC2C(=O)NCCN2Cc2c(F)cccc2Cl)on1 (stereo not shown) | 12.7 |
| Cn1c(=O)c2sccc2n2c(CCCC(=O)NCc3cccnc3)nnc12 | 15.5 |
| OC(CCc1ccncc1)COc1ccccc1 (stereo not shown) | 9.33 |
| Cc1ccc(NC(=O)CN2C(=O)CCSc3ccc(S(=O)(=O)N4CCCC4)cc32)cc1 | 19 |
| Cc1nc2c(C(=O)O)cnn2c(C)c1Cc1ccccc1F | 4.96 |
| Cc1ccccc1NC(=O)Nc1cnccn1 | 4.46 |
| CN(CC(=O)NCCc1ccc(S(N)(=O)=O)cc1)Cc1c(F)cccc1Cl | 10.8 |
| CCC(C)C(N)C(=O)NC(CCC(=O)OCc1ccccc1)C(N)=O.Cl (stereo not shown) (H-Ile-Glu(OBn)-NH2; configuration not given here) | 17.2 |
| CN(C)/C(=N\S(=O)(=O)c1ccccc1)c1ccc(F)cc1 | 16.1 |
| CSc1nc(C)cc(Oc2ccc(OCCOc3ccccc3)nn2)n1 | -2.37 |
| CN1CCOCCOCCN(C)C1=O | 9.62 |
| Cc1ccc(S(=O)(=O)Oc2ccc(C(c3c(C)[nH][nH]c3=O)c3c(C)[nH][nH]c3=O)cc2)cc1 | -1.65 |
| CCc1cc(C(=O)N=Nc2c(O)[nH]c3ccc([N+](=O)[O-])cc23)c2ccccc2n1 | 8.07 |
| Cc1nn(-c2ccccc2)c(Cl)c1C(=O)NNC(=O)c1ccncc1 | 8.68 |
